In the supplement of paper PMC3334620:
The full ranking holds about 33,000 sequences; the median of “E-score (-0.5 to 0.5)” is about -0.016, and the highest 2% start at about 0.32. The list shows a part of the results.

What follows are sequences tested against T1, Stp1 (UniProt B3LFK1) (assay: PBM E-score (8-mer binding enrichment) (E-score (-0.5 to 0.5)); higher = stronger / more preferred TF binding; most listed sequences are background and not binding sites). Details: protein concentration: 200 nM; construct: GST-full length.
T1 sequence: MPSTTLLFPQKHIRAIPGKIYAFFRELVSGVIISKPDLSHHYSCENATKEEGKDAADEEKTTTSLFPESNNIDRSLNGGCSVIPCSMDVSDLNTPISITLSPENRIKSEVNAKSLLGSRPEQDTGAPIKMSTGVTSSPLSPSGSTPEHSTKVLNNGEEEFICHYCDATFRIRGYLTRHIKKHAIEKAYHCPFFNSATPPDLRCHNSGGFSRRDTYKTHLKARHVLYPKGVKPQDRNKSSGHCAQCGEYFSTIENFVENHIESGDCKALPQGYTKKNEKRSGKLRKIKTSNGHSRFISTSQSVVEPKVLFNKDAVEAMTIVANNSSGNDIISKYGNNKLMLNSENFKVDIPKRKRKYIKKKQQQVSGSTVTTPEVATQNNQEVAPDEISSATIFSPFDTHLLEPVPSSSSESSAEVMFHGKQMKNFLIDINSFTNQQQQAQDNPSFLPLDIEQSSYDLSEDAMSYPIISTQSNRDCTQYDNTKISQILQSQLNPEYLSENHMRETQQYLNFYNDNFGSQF
Outline: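 Bound GST-tagged yeast transcription factors, applied at about 100-200 nM to double-stranded universal all-10-mer Agilent arrays, were detected with fluorescent anti-GST. Scans were normalised with masliner. A modified Wilcoxon-Mann-Whitney statistic, the E-score, was assigned to each ungapped eight-base word pooled with its reverse complement by the Universal PBM Analysis Suite.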

Sequence	PBM E-score
GCATGCTA	-0.218
ACGACCCA	-0.238
CGGCCACA	0.272
GAACTTTA	-0.00687
GACGAGCC	0.00102
CGGGCCTA	-0.291
ATGTATAC	0.0457
CATTGATC	0.0698
CTTTCTCC	-0.244
CTAATCAC	0.171
CTGATGCC	0.187
ACTACATA	-0.0145
GTCTCTAA	-0.0881
ACACAGTC	-0.0562
CCGTCTAG	0.177
CCAAAGCC	0.105
AACCGCAA	0.0793
TAGCTATA	-0.135
CTCATGGC	0.0928
GTTCCCGA	-0.0302
GCCCTAAC	0.158
AAGGACTG	-0.13
ATTTGTCC	-0.00342
ATCAAGAG	0.0368
CAGCACCC	-0.223

Sequence	PBM E-score
GCTGGCAC	-0.02
ATGGAATC	0.117
CTCACCAA	0.045
ACGTGCGA	0.00881
ATTGGACC	-0.188
GCTAAACC	-0.156
AGATTACA	0.0851
GAGAGCAA	-0.0418
AGCTTTAA	0.0302
GAATCGTA	0.0338
CCTCAGCC	-0.162
GGTCAACC	-0.115
AGTTATAC	0.121
ACCGAGAC	-0.179
GAGCCGCC	0.319
CTGTCCCA	-0.0423
CTCGTCAA	0.0518
GTTCGCGA	0.124
ACTAAGAC	0.0929
GGCCGAAC	-0.119
CCCTCCGG	-0.217
CGTCGAAA	0.227
GCTTCAAC	-0.0217
GCATGTCA	-0.0507
AGAGGAGG	-0.29

Sequence	PBM E-score
CACGCCCA	-0.068
AAGGAATA	0.146
CGGCGGGA	0.207
ATACGCCA	0.0267
ACGAGTAC	-0.0325
CAACCGTG	-0.0436
CCCACATC	-0.278
GAGGTGAA	-0.0598
AAATAACC	-0.0869
AATTTTGG	0.00059
CCAAAGAG	0.0985
TCGTATAA	0.136
AGTCGTCA	-0.184
GGCAAAAA	0.388
AAAACGCG	0.251
AACATTTG	-0.118
CTAGCTTC	-0.141
ACATCTCT	-0.108
AAGGTCCG	0.0055
GATCGTAC	-0.135
CAGTTTCC	-0.0826
GATTCGCC	0.117
CGCCAGTA	-0.00993
CCCTACAA	0.0648
GGAGGGTA	-0.195

Sequence	PBM E-score
TGGCCAAA	-0.185
ACCACCTC	-0.108
CTTCCCTC	-0.25
ACCTCCCT	-0.338
ACGCCACA	0.295
TAGAGGGA	-0.18
CGTATACC	-0.102
CTGTAAAC	-0.0181
CGAATACG	0.0295
CAACCTCG	0.0946
AAGCAGGT	-0.00551
CGGCATCC	0.353
ACCGGAGC	-0.0724
TGGAGAAA	0.0545
TCTGTGCA	0.0204
TACCAACA	0.119
CTATCTAC	-0.0115
GCCTGACA	-0.199
AATCCCGC	0.146
CCAATCTA	-0.0701
AGTAAGTC	-0.3
CCCGGTGA	-0.182
CAATGATG	-0.121
GGATGGTA	0.101
GGACATTA	0.00641

Sequence	PBM E-score
ACGTAACC	-0.0919
CGTCGCAG	0.0327
AGCCCAAC	-0.185
AGTCATCA	-0.16
ATCGACTC	-0.2
AACGCATT	0.0341
ATCTTGAG	-0.0881
GGGACGAA	-0.18
CAGGGCGA	0.0902
CGTGACAA	-0.0715
CTTCCCGA	0.0459
GGAGATAC	-0.0561
CATCTTGA	-0.0859
ACTGACCG	-0.134
ATGGCCCA	-0.087
AATCAAGA	0.0814
TAAAAGTA	0.0436
CCCCTCCC	-0.232
GGTTCTGA	0.101
GCATGCGA	0.117
GCCGTGAC	0.294
CGTTACGA	0.131
GGCTACCA	-0.0236
AGCCACCT	-0.21
ATAGGACG	-0.0533

Sequence	PBM E-score
ATGATTAG	-0.127
TGATAAAA	0.183
GATTTCAA	0.0202
CAGATCCA	0.0873
CAGGTGAA	0.103
CCAGCGAA	-0.209
CTGTGTAC	0.0488
ACCAACAT	0.237
AAGCTAAT	0.103
CGTGGGGC	0.0277
AGTTATCG	0.106
GCCGCCTA	0.185
GGTCACCA	-0.264
CCGTACTC	0.145
CTATCGAG	0.0364
ACTGTCTG	-0.0255
AAATAGTA	0.0861
AGCCAGCC	-0.262
GTCAACAA	-0.0577
CCAAAACC	0.0568
CATGTACC	-0.114
GCCTGCCA	-0.00465
AATGCTGT	-0.0931
CACGCTTA	0.0934
AGGCTAAT	0.134

Sequence	PBM E-score
CCCGAAAA	0.0165
CGGGGGTA	-0.175
AGTGTGCC	0.128
GCAGCACA	0.117
GGCAGTAA	0.0329
GAACTTGC	-0.0689
CTTCGATA	0.0898
GAGGATTA	-0.0746
GCCGACAC	-0.165
ACCCGGAG	0.0611
TGACCGAA	0.0394
CATAAGAC	-0.0856
ATGGGTAG	-0.107
AAACCAAA	0.074
ACTGTAAA	0.163
AATTCTAC	0.105
ACGATAAG	-0.108
GGAATGGA	-0.0435
CCAGGGCC	-0.261
AAGTCCAG	-0.265
AGACCGAG	-0.25
GCGAATAA	-0.0358
AAAAAGAG	-0.131
CGGGACGA	-0.117
ACTTAAGC	-0.0869

Sequence	PBM E-score
AAGTTAAA	0.062
ATAGGTAG	-0.117
ACATGGCG	0.0335
CCGCGACG	0.197
CTTCTGAA	-0.0167
ACGGGCTA	-0.176
TAATCTCA	-0.0316
GCTTGCAA	0.162
CACTCGAC	-0.0615
ATGCACCC	-0.0799
AGCCCACA	-0.306
ACATGGAC	-0.0662
GGGGTATA	-0.213
CGGCATTC	0.441
GGACAAAA	0.0594
ATTGGCGC	0.189
CAAATGTC	-0.142
TCATTTCA	0.0273
CTGAGAAC	0.034
AAAGGGCC	-0.0703
CTGGGAAG	-0.137
ACACGCCA	0.0386
ACTCCCGC	-0.0607
ATGTAAAC	0.162
CTCTTACA	-0.0752

Sequence	PBM E-score
CGGATCTA	0.0298
CGGAGCAA	-0.0204
GAATAGGA	-0.0336
ATCATCAT	0.0193
ACGTTTCG	0.028
ACAGATAT	-0.0191
AAACTAAG	0.252
CATCAAAA	0.22
GCCCGCAA	-0.145
AAAGGACT	-0.204
GTTCGCCA	-0.00728
CGGCAACA	0.368
AATAATGC	0.243
CCCCGACC	-0.273
AAACCTGC	-0.0641
CGTCACCA	-0.0712
AGAGTTTG	-0.0663
TACGCCTA	0.03
GGGTGTCA	-0.166
AGCTGTCC	-0.166
TACGAAAA	0.168
ACTAAAAC	-0.0146
TAGAGCGA	-0.0163
